# From PubChem BioAssay AID588855 (National Center for Advancing Translational Sciences (NCATS), 2011)
# About 5,000 (1.2%) of roughly 410,000 compounds were called active. The inconclusive results got no clear call from the source; some entries with a clear call stand among them for comparison. The call rests on the fitted dose curve; in most records, active means well fitted inhibition curve with a large enough effect; inconclusive means small, poorly fitted or top-dose-only effect; inactive means no such curve, though single readings can be large or run the other way. Where the call is inconclusive, the potency comes from a doubtful curve fit.
# Test: qHTS for Inhibitors of TGF-b; further: nearly all actives have a fitted effect of over 65% in size
# Settings: HepG2 CAGA-GFP TGF-b/SMAD3 reporter, GFP fluorescence, 18 h, TGF-beta stimulated, 500 pg/mL final; series mostly up to 46.1 µM; activity, negative = inhibition: at the top concentration
# How it was run: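 HEPG2 CAGA-GFP, 1000 cells/well; 2 h settle, 37 C; cpd via pin tool; TGF-b 500 pg/mL final; 18 h, 37 C; GFP imaging ex488/em500-530; %Activity normalised to -TGF-b and +DMSO controls; CRC fit, curve class.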
# On the % scale 0 is the no-effect control and ±100 the full control effect; potency means the concentration at half of the fitted maximal effect; tags describe the fitted curve by direction and shape.
Compound,"activity, negative = inhibition",Potency
CCCCCCSc1ccc([C@@H]2[C@H]3C(=O)N(C)C(=O)[C@H]3[C@]3(C(=O)OC)CCCCN23)cc1OC,inactive: -25%,–
CCCCN(C(=O)c1cccc(S(=O)(=O)N2CC(C)OC(C)C2)c1)c1c(N)n(CC(C)C)c(=O)[nH]c1=O (configuration not stated),inactive: 25.4%,–
CC1(C)OC(c2ccccc2)=C/C(=C/C=Nc2ccccc2)O1,–,"inconclusive: 0.112 µM [inhibitor, full curve, poor fit]"
CCNC(=S)Nc1ccc2c(c1)c(=O)n(C)n2-c1ccc(C(C)(C)C)cc1,–,"inconclusive: 35.5 µM [inhibitor, single point]"
CCOC(=O)C1=C(CN(CC)Cc2ccccc2)NC(=O)NC1c1ccc(Cl)cc1 (configuration not stated),–,"inconclusive: 35.5 µM [inhibitor, single point]"
COc1ccc(NC(=O)N2CCC(n3c(C)nc4cccnc43)CC2)cc1OC,inactive: -4.85%,–
Cc1ccnc(NC(=O)c2ccc(NS(=O)(=O)/C=C/c3ccccc3)cc2)c1,–,"inconclusive: 15.8 µM [inhibitor, single point]"
Clc1ccc2c(NCc3ccccc3)ccnc2c1,–,"inconclusive: 17.8 µM [inhibitor, partial curve, poor fit]"
Cc1ccc(S(=O)(=O)/N=C2/NC(=O)/C(=C\c3ccco3)S2)cc1,–,"inconclusive: 25.1 µM [inhibitor, single point]"
CC1(C)NC(=O)N(CC(=O)N2CCN(S(=O)(=O)c3ccccc3C(F)(F)F)CC2)C1=O,–,"inconclusive: 25.1 µM [inhibitor, single point]"
Cc1cc(C)c2nc(NNC(=O)c3ccc(S(=O)(=O)N4CC(C)CC(C)C4)cc3)sc2c1 (configuration not stated),–,"inconclusive: 10 µM [inhibitor, partial curve, poor fit]"
CSc1ncc2c(n1)-c1ccccc1N(Cc1ccccc1C)S2(=O)=O,inactive: 5.08%,–
COc1cccc(CCNC(=O)c2cnc3sc(N4CCCC4)nn3c2=O)c1,–,"inconclusive: 35.5 µM [inhibitor, partial curve, poor fit]"
COc1ccccc1N(CC(=O)NCCSc1ccccc1)S(=O)(=O)c1ccc(C)cc1,–,"inconclusive: 14.1 µM [inhibitor, single point]"
CN(CC(=O)Nc1ccc(Cl)c(C(F)(F)F)c1)C(=O)/C=C/c1cccs1,–,"inconclusive: 11.2 µM [inhibitor, single point]"
O=C(/C=C/c1ccccc1[N+](=O)[O-])Nc1ccc(S(=O)(=O)Nc2ncccn2)cc1,inactive: 15.3%,–
CCS(=O)(=O)c1ccc(-c2cccc(NC(=O)c3ccco3)c2)nn1,–,"inconclusive: 3.55 µM [inhibitor, single point]"
O=C(Nc1ccccc1)C1=C[C@H](c2ccc3c(c2)OCO3)C[C@H](OCc2ccc(CO)cc2)O1,–,"inconclusive: 14.1 µM [inhibitor, single point]"
COc1cc(C(=O)Nc2nc3ccc(S(=O)(=O)N4CCOCC4)cc3s2)cc(OC)c1OC,inactive: 6.96%,–
O=C1CN(C(=O)COc2ccc(Cl)c(Cl)c2)c2ccccc2N1,–,"inconclusive: 35.5 µM [inhibitor, single point]"
CN1CCN(CC(=O)N2CCn3c4c(c5cc(C6CCCCC6)ccc53)CCCC42)CC1 (configuration not stated),–,"inconclusive: 35.5 µM [inhibitor, single point]"

Compound,"activity, negative = inhibition",Potency
O=C(Nc1nccs1)C1CCN(S(=O)(=O)c2ccc3c(c2)OCCCO3)CC1,–,"inconclusive: 35.5 µM [inhibitor, single point]"
CCC(=O)c1ccc(OCC(O)CN(CCc2ccccc2)Cc2ccccc2)cc1 (configuration not stated),–,"inconclusive: 20 µM [inhibitor, single point]"
CC(C)C(=O)N/N=C/c1ccc(OCc2ccccc2)cc1,–,"inconclusive: 35.5 µM [inhibitor, single point]"
C=CCOc1ccc(/C=C2\SC(=S)N(CCC(=O)O)C2=O)cc1,–,"inconclusive: 6.31 µM [inhibitor, single point]"
Cc1ccc(Nc2c3c(nc4ccccc24)CCC3)cc1F,–,"inconclusive: 14.1 µM [inhibitor, partial curve, poor fit]"
COc1ccc(CC(=O)N2CCN(S(=O)(=O)c3cc(Cl)ccc3Cl)CC2)cc1,–,"inconclusive: 7.08 µM [inhibitor, partial curve, poor fit]"
O=C1Cc2cc(NS(=O)(=O)c3ccc(F)cc3)cc3c2N1CCC3,–,"inconclusive: 11.2 µM [inhibitor, partial curve, poor fit]"
CCc1ccc(-c2nc3cc(NC(=O)c4ccc(F)cc4)ccc3o2)cc1,inactive: 4.53%,–
COc1ccc2nc(C(F)(F)Cl)c(C#N)c(N)c2c1,–,"inconclusive: 35.5 µM [inhibitor, single point]"
CC(=O)C1=NN(c2ccc(Cl)cc2)C(c2ccc3c(c2)OCO3)N(C(C)=O)N1C (configuration not stated),–,"inconclusive: 35.5 µM [inhibitor, single point]"
CCOc1ccc(S(=O)(=O)N2CCC(C(=O)NCc3ccco3)CC2)cc1,inactive: 0%,–
CN(CCOc1ccc(Cl)cc1)C(=O)CN1C(=O)NC2(CCCC2)C1=O,inactive: -5.38%,–
CC1CCc2c(sc3ncnc(SCC(=O)c4ccccc4)c23)C1 (configuration not stated),inactive: 0%,–
CC(=O)Nc1cccc(C(=O)/C=C/c2ccc(Br)cc2)c1,–,"inconclusive: 15.8 µM [inhibitor, single point]"
COc1ccc(CCNC(=O)CCc2cc(OC)c(OC)c(OC)c2)cc1,inactive: 5.28%,–
CCOc1cc(-c2cc(C(=O)O)c3c(-c4ccccc4)[nH]nc3n2)ccc1O,inactive: -0.346%,–
CC1Cc2ccccc2N1c1ncnc(N)c1[N+](=O)[O-] (configuration not stated),–,"inconclusive: 35.5 µM [inhibitor, single point]"
CCCNC(=O)C1CCCN(S(=O)(=O)c2ccc3c(c2)CC(C)N3C(=O)C2CC2)C1 (configuration not stated),–,"inconclusive: 35.5 µM [inhibitor, single point]"
CC(Nc1nc(-c2ccccc2)nc2ccccc12)c1ccccc1 (configuration not stated),–,"inconclusive: 35.5 µM [inhibitor, single point]"
Cc1cc(C)n(S(=O)(=O)c2cccc(Cl)c2Cl)n1,inactive: 1.13%,–
CCN(C(=O)c1nn(C)c2c1CSc1ccccc1-2)c1cccc(C)c1,–,"inconclusive: 22.4 µM [inhibitor, single point]"
